Out of some 310,000 compounds screened, about 14,000 (4.5%) showed an effect of 50% or more. Effects have a minus sign here. The list shows a part of the results.
target: human ether-à-go-go-related gene (hERG) potassium channel (human, UniProt Q12809); experiment: primary screen, population patch clamp on CHO cells stably expressing hERG
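Also: peak tail current of the secondary pulse compared with the same well before compound.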

Chain of human ether-à-go-go-related gene (hERG) potassium channel (Q12809 whole entry, looked up): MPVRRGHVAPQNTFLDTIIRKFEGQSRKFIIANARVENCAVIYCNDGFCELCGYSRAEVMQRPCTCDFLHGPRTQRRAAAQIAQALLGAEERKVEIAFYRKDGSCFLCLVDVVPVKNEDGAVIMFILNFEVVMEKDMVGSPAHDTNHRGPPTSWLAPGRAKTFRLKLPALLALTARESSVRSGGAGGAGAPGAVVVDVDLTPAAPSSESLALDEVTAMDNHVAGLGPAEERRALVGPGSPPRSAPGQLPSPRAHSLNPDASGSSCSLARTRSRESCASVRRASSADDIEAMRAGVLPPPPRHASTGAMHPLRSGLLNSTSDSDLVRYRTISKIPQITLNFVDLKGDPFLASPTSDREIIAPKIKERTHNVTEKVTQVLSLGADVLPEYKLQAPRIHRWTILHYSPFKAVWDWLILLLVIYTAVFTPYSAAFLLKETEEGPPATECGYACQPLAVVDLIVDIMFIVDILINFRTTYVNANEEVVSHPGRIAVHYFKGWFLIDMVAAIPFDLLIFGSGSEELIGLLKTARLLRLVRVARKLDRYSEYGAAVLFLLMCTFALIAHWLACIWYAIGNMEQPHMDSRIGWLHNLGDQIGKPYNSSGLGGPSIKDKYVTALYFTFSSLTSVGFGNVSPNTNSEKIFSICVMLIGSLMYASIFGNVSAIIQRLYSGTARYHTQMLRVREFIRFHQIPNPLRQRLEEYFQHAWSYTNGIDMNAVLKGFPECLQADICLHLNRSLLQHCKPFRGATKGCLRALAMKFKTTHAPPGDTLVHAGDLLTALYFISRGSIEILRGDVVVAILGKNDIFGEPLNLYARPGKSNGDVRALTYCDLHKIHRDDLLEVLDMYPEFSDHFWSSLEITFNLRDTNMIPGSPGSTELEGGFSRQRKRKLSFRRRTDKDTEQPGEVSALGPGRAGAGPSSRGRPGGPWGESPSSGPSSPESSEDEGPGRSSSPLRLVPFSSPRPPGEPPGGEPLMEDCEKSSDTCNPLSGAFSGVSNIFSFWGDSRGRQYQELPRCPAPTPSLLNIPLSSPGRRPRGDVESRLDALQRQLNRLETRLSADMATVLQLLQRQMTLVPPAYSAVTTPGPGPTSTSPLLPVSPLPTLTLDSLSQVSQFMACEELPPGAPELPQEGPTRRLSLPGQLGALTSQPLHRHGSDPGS

Row | SMILES | hERG current change (%, negative = inhibition) at 10uM
1 | N=c1c(C(=O)NCC2CCCO2)cc2c(=O)n3ccccc3nc2n1Cc1cccnc1 (centres unmarked) | -72.9%
2 | COC(OC)C1(C)C(C#N)=C(N)Oc2c1c(=O)oc1ccccc21 (centres unmarked) | 8.74%
3 | Fc1cc(Br)ccc1NC(=S)NCCc1ccccc1 | -1.43%
4 | O=C(CNS(=O)(=O)c1cccc(C(F)(F)F)c1)Nc1ccccc1F | -5.3%
5 | CC1(C)CC(=O)N(CC(=O)O)c2ccccc2S1(=O)=O | 3.52%
6 | COc1ccc(CN2CCN(Cc3cn(C)nc3-c3ccccc3)CC2CCO)c(C)c1C (centres unmarked) | -72.4%
7 | Cc1coc2c1c(C)cc1oc(=O)c(Cc3ccccc3)c(C)c12 | 17.5%
8 | COc1ccc(NC(=O)c2ccco2)cn1 | 18.8%
9 | Cc1cc(NC(=O)c2ccc(C)c(C)c2)no1 | 11.8%
10 | CC1=C(C(=O)OCc2ccccc2)C(c2ccccc2)NC(=O)N1CCCCCC(=O)O (centres unmarked) | -13.7%
11 | Cc1ccc(N2CCN(C(=O)Nc3cccc([N+](=O)[O-])c3)CC2C)cc1 (centres unmarked) | -78.3%
12 | CCc1nnc(SCC(=O)Nc2nccs2)n1CC | 18%
13 | c1ccc(Sc2ncnc3c2oc2ccccc23)cc1 | 14.5%
14 | O=S(=O)(NCCc1ccccc1)c1ccc(F)cc1 | 4.55%
15 | CCn1c(-c2ccccc2Cl)nn(CC(=O)Nc2ccccc2C)c1=S | 0.806%
16 | CCS(=O)(=O)C(=C(Nc1ccc(OC)cc1)Nc1ccc(OC)cc1)S(=O)(=O)CC | -5.64%
17 | Cc1oc(-c2ccccc2F)nc1CS(=O)(=O)CC(=O)N1CCc2ccccc21 | 12.4%
18 | CCOC(=O)c1ccccc1N/C=C1\CCCC1=O | -22.8%
19 | COc1ccc(-c2csc3ncnc(N4CCN(S(=O)(=O)c5ccc(C(C)=O)cc5)CC4)c23)cc1 | -17%
20 | CC(C)c1ccc2c(c1)CCC1C(C)(CN)CCCC21C.O=C(O)c1ccccc1 (centres unmarked) | 4.7%
21 | CCOc1ccc(C(=O)CCC(=O)Nc2ccc(C)cn2)cc1 | -22.2%
22 | OCCC1CN(Cc2ccc3cc(Cl)ccc3n2)CCN1Cc1ccsc1 (centres unmarked) | -65%

Row | SMILES | hERG current change (%, negative = inhibition) at 10uM
23 | NC(=O)C1CC(=O)N(c2ccc(OCc3c(Cl)cccc3Cl)cc2)C1 (centres unmarked) | 15.9%
24 | COc1cc(C(=O)NCCOc2cccc3cccnc23)cc(OC)c1OC | -5.99%
25 | Oc1ccccc1C1=Nc2ccccc2N=C(c2cccs2)C1 | 23.6%
26 | Cn1cnc(S(=O)(=O)N2CCN(c3cccc(Cl)c3)CC2)c1 | 9.76%
27 | C=CCn1c(CNC(=O)c2ccccc2F)nnc1SCc1nc2ccccc2c(=O)[nH]1 | -1.68%
28 | O=C(CN1CCCN(S(=O)(=O)c2ccc(F)cc2)CC1)Nc1cccc(F)c1 | -50.3%
29 | COc1cc(-c2nnc(CSc3nnc(N)s3)o2)cc(OC)c1OC | -2.43%
30 | Cc1nn(Cc2ccc(F)cc2)c(C)c1NC(=O)c1noc2c1CCc1ccccc1-2 | -10%
31 | COc1ccc(C)c(-n2c(=O)n(Cc3ccccc3)c(=O)c3[nH]cnc32)c1 | 8.32%
32 | CCC(=O)Nc1ccc(C(=O)CSc2nnc(CNc3ccc(Cl)cc3)o2)cc1OC | 12.5%
33 | O=C(NC1CCCC1)C(c1ccncc1)N(C(=O)c1ccco1)c1ccc(Cl)cc1 (centres unmarked) | -4.59%
34 | Cc1ccc(Oc2ccc(-c3nc(N)nc(N)n3)cc2)cc1 | 31.6%
35 | CC(Sc1nnc(C(C)N(C)C)n1-c1ccc(Cl)cc1)C(=O)Nc1ccc2c(c1)OCO2 (centres unmarked) | -2.55%
36 | CC1CC(C)CN(C(=O)COC(=O)c2cccc([N+](=O)[O-])c2)C1 (centres unmarked) | -1.37%
37 | COc1ccc(/C=N/NC(=O)c2cccnc2)cc1COc1ccc([N+](=O)[O-])cc1 | -28.5%
38 | Cc1cccc(C)c1NC(=O)CSc1nnc(-c2ccccc2)n1Cc1ccc2c(c1)OCO2 | -24%
39 | CCOC(=O)c1cnc(-c2ccccc2)[nH]c1=O | 15.6%
40 | O=C(CN1CCCCC1)Nc1cc(S(=O)(=O)N2CCOCC2)ccc1N1CCCC1 | 6.08%
41 | Cc1nn(-c2ccccc2)c(Cl)c1/C=N\NC(=O)c1cncc(Br)c1 | -21.1%
42 | COc1ccc(NC(=O)/C(Cl)=C(/Cl)S(=O)Cc2ccc(C)cc2)cn1 (centres unmarked) | -9.86%
43 | Oc1ccc(Oc2ccc(Oc3ccc(O)cc3)cc2)cc1 | 14.2%
44 | O=C(CSc1nnc(CNC(=O)c2ccco2)o1)Nc1ccccc1C(F)(F)F | 20.8%
